Data published in US3945994A, “Novel acid compounds” (Gist-Brocades N.V., priority 1973, dated 1976).
≈ marks a conversion by molar mass, not a printed value. Each block holds one compound with its values, some of them ahead of it.

What was measured:
[1] = system: Proteus mirabilis L 93; experiment: microbe, parasite or virus in culture; conditions: L93, 24 h
[2] = system: Proteus mirabilis L93; experiment: micro serial dilution test, MIC; assay type: cell-based; conditions: micro serial dilution (between brackets), 30°C or 37°C, about 18 hours

SMILES: CC(=NS(=O)(=O)N[C@@H](C(=O)N[C@@H]1C(=O)N2[C@@H]1SC(C)(C)[C@@H]2C(=O)O)c1ccccc1)N(C)C [XXI, D-6-[α-{1-(dimethylamino)-ethylideneamino-sulfonamido}-benzylcarbonamido]-penicillanic acid]
MIC [1]: 3 mg/L (≈ 6.03 µM)

SMILES: CCOC(=O)NS(=O)(=O)N[C@@H](C(=O)N[C@@H]1C(=O)N2[C@@H]1SC(C)(C)[C@@H]2C(=O)O)c1ccccc1 [XIX, D-6-[α-(ethoxycarbonylaminosulfonylamino)-benzylcarbonamido]-penicillanic acid]
MIC [1]: 3 mg/L (≈ 5.99 µM)

SMILES: CC1(C)S[C@@H]2[C@H](NC(=O)[C@H](NC(=O)NS(=O)(=O)Nc3cccnc3)c3ccccc3)C(=O)N2[C@H]1C(=O)O [XI, D-6-[α-{3-(pyrid-3-ylaminosulfonyl)-ureido}-benzylcarbonamido]-penicillanic acid]
MIC [1]: 3 mg/L (≈ 5.47 µM)

SMILES: CC1(C)S[C@@H]2C(NC(=O)C(N)c3ccccc3)C(=O)N2[C@H]1C(=O)O (stereo partly drawn) [ampicillin, 6-(α-aminophenylacetamido) penicillanic acid, reference compound]
MIC [1]: 3 mg/L (≈ 8.59 µM)

SMILES: CC1(C)S[C@@H]2[C@H](NC(=O)[C@H](NC(=O)NS(N)(=O)=O)c3ccccc3)C(=O)N2[C@H]1C(=O)O [XVI, D-6-[α-{3-(aminosulfonyl)-ureido}-benzylcarbonamido]-penicillanic acid]
MIC [1]: 6 mg/L (≈ 12.7 µM)

SMILES: CC1(C)S[C@@H]2[C@H](NC(=O)C(C(=O)O)c3ccccc3)C(=O)N2[C@H]1C(=O)O (stereo partly drawn) [carbenicillin, reference compound]
MIC [2]: 0.3 mg/L (≈ 0.793 µM)

SMILES: CC(=O)OCC1=C(C(=O)O)N2C(=O)[C@@H](NC(=O)[C@H](N)c3ccccc3)[C@H]2SC1 [cephaloglycin, 7-(α-aminophenylacetamido) cephalosporanic acid, reference compound]
MIC [1]: 3 mg/L (≈ 7.4 µM)

SMILES: CN1CCCC1=NS(=O)(=O)N[C@@H](C(=O)N[C@@H]1C(=O)N2[C@@H]1SC(C)(C)[C@@H]2C(=O)O)c1ccccc1 [XXIII, D-6-[α-{1-(methylpyrrolidin-2-ylidene)-amino-sulfonamido}-benzylcarbonamido] -penicillanic acid]
MIC [1]: 3 mg/L (≈ 5.89 µM)

The remaining lines, values ahead:

MIC [1]: 1.5 mg/L (≈ 2.74 µM)
SMILES: CC1(C)S[C@@H]2[C@H](NC(=O)[C@H](NC(=O)NS(=O)(=O)Nc3ccccc3)c3ccccc3)C(=O)N2[C@H]1C(=O)O [VII, D-6-[α-{3-(phenylaminosulfonyl)-ureido}-benzylcarbonamido]-penicillanic acid]

MIC [1]: 0.75 mg/L (≈ 1.32 µM)
SMILES: Cc1noc(NS(=O)(=O)NC(=O)N[C@@H](C(=O)N[C@@H]2C(=O)N3[C@@H]2SC(C)(C)[C@@H]3C(=O)O)c2ccccc2)c1C [XIII, D-6-[α-{3-(3,4-dimethylisoxazol-5-yl-aminosulfonyl)ureido}-benzylcarbonamido]-penicillanic acid]

MIC [1]: 1.5 mg/L (≈ 3 µM)
SMILES: CCOS(=O)(=O)NC(=O)N[C@@H](C(=O)N[C@@H]1C(=O)N2[C@@H]1SC(C)(C)[C@@H]2C(=O)O)c1ccccc1 [VI, D-6-[α-{3-(ethoxysulfonyl)-ureido}-benzylcarbonamido]-penicillanic acid]

MIC [1]: < 0.75 mg/L
SMILES: CC1(C)S[C@@H]2[C@H](NC(=O)[C@H](NC(=O)NS(=O)(=O)O)c3ccccc3)C(=O)N2[C@H]1C(=O)O [XVII, D-6-[α-{3-(sulfo)-ureido}-benzylcarbonamido]-penicillanic acid]

MIC [1]: < 0.75 mg/L
SMILES: CC1(C)S[C@@H]2[C@H](NC(=O)[C@H](NC(=O)NS(=O)(=O)N3CCOCC3)c3ccccc3)C(=O)N2[C@H]1C(=O)O [XIV, D-6-[α-{3-(morpholino-sulfonyl)-ureido}-benzylcarbonamido]-penicillanic acid]

MIC [1]: 0.75 mg/L (≈ 1.46 µM)
SMILES: CC(C)NS(=O)(=O)NC(=O)N[C@@H](C(=O)N[C@@H]1C(=O)N2[C@@H]1SC(C)(C)[C@@H]2C(=O)O)c1ccccc1 [IX, D-6-[α-{3-(isopropylaminosulfonyl)-ureido}-benzylcarbonamido]-penicillanic acid]

MIC [1]: 1.5 mg/L (≈ 3.5 µM)
SMILES: CC1(C)S[C@@H]2[C@H](NC(=O)[C@H](NS(N)(=O)=O)c3ccccc3)C(=O)N2[C@H]1C(=O)O [XVIII, D-6-[α-(aminosulfonylamino)-benzylcarbonamido]-penicillanic acid]

MIC [1]: 1.5 mg/L (≈ 3.3 µM)
SMILES: Cc1nnc(SCC2=C(C(=O)O)N3C(=O)[C@@H](NC(=O)Cn4cnnn4)[C@H]3SC2)s1 [cephazolin, reference compound]

MIC [1]: < 0.75 mg/L
SMILES: CCOC(=O)CNS(=O)(=O)NC(=O)N[C@@H](C(=O)N[C@@H]1C(=O)N2[C@@H]1SC(C)(C)[C@@H]2C(=O)O)c1ccccc1 [X, D-6-[α-{3-(ethoxycarbonylmethylaminosulfonyl)-ureido}-benzylcarbonamido]-penicillanic acid]

MIC [1]: 1.5 mg/L (≈ 2.71 µM)
SMILES: Cc1cc(NS(=O)(=O)NC(=O)N[C@@H](C(=O)N[C@@H]2C(=O)N3[C@@H]2SC(C)(C)[C@@H]3C(=O)O)c2ccccc2)no1 [XII, D-6-[α-{3-(5-methylisoxazol-3-yl-aminosulfonyl)-ureido}-benzylcarbonamido]-penicillanic acid]
